Earlier results in patent EP1813310A2, “Cosmetic stick based on an oil in water dispersion/emulsion” (Henkel Kommanditgesellschaft auf Aktien, priority 2006, dated 2007).
At least one read-out could not be matched to a standard name with certainty.

settings: Tabelle 1, taken from Cosmetics & Toiletries, Vol. 103, October 1988, Seiten 47 - 69

Row | SMILES | Solubility Parameter
1 | CCCCNC(=O)NS(=O)(=O)c1ccc(C)cc1 [Tolbutamide, reference compound] | 10.98 (cal/cm^3)^0,5
2 | CCC(N)=O [Propionamide] | 13,46 (cal/cm^3)^0,5
3 | CCCCCCCC/C=C\CCCCCCCC(=O)OCCCCCCCC(C)C [Isodecyl Oleate] | 7.17 (cal/cm^3)^0,5
4 | CCCCCCCC/C=C\CCCCCCCC(=O)OC [Methyl Oleate] | 8.05 (cal/cm^3)^0,5
5 | OCC=Cc1ccccc1 [Cinnamyl Alcohol] | 11.96 (cal/cm^3)^0,5
6 | CC12CCC(CC1=O)C2(C)C (centres unmarked) [Camphor] | 9.45 (cal/cm^3)^0,5
7 | COC(=O)c1ccccc1 [Methyl Benzoate] | 10.48 (cal/cm^3)^0,5
8 | CCCCCC(=O)OC [Methyl Caproate (CB), Methyl Caproate] | 8.88 (cal/cm^3)^0,5
9 | CCCCCCCCCCCCCCO [Myristyl Alcohol (C14), Myristyl Alcohol] | 9.16 (cal/cm^3)^0,5
10 | CC(=O)c1ccccc1 [Acetophenone] | 10.64 (cal/cm^3)^0,5
11 | CCCOC(C)=O [Propyl Acetate] | 9.02 (cal/cm^3)^0,5
12 | CCCCCC(=O)OCC [Ethyl Caproate (C6), Ethyl Caproate] | 8.69 (cal/cm^3)^0,5
13 | CCOC(=O)C=Cc1ccccc1 [Ethyl Cinnamate] | 10.14 (cal/cm^3)^0,5
14 | CC(=O)CC(C)(C)O [Diacetone Alcohol] | 10.67 (cal/cm^3)^0,5
15 | C=CC(C)(O)CCC=C(C)C (centres unmarked) [Linalool] | 9.62 (cal/cm^3)^0,5
16 | CCC(C)C [Isopentane] | 6.82 (cal/cm^3)^0,5
17 | CC(=O)C(=O)O [Pyruvic Acid] | 12.94 (cal/cm^3)^0,5
18 | CCCCCCCCCCCCCCCCO [Cetyl Alcohol (CIG), Cetyl Alcohol] | 8.94 (cal/cm^3)^0,5
19 | CCCCCCCCCCCCCCCCCCCC(=O)O [Arachidic Acid] | 6.85 (cal/cm^3)^0,5
20 | CCCCCCCC/C=C\CCCCCCCCO [Oleyl Alcohol] | 8.95 (cal/cm^3)^0,5
21 | CCCCC/C=C\C/C=C\CCCCCCCC(=O)OC(C)C [Isopropyl Linoleate] | 7.55 (cal/cm^3)^0,5
22 | CC(=O)OCC(COC(C)=O)OC(C)=O [Triacetin] | 10.77 (cal/cm^3)^0,5
23 | CCCCCCCCN [Octylamine] | 8,21 (cal/cm^3)^0,5
24 | CC1CC(OC(=O)c2ccccc2O)CC(C)(C)C1 (centres unmarked) [Homosalate] | 10.29 (cal/cm^3)^0,5
25 | COC(=O)C(C)O (centres unmarked) [Methyl Lactate] | 11.47 (cal/cm^3)^0,5
26 | CCCCCCc1ccc(O)cc1O [Hexyl Resorcinol] | 14.06 (cal/cm^3)^0,5
